According to patent US20260216242A1, “ALPP-SPECIFIC VARIANT ANTIGEN BINDING MOLECULES” (ALMAC DISCOVERY LIMITED, priority 2022, published 2026):

Assays:
ALPP = ALPP (Homo sapiens, UniProt P05187); experiment: BLI binding kinetics, human ALPP immobilised on AR2G sensors (KD / KD apparent); details: VHH-hFc, KD apparent format
Experimental: (§1) Binding kinetics were determined using the Biolayer Interferometry (BLI) Octet K2 system (Sartorius). Human ALPP, ALPPL2, ALPL (each fused with a cysteine stabilised leucine zipper) and ALPI, (SEQ ID NO: 265, SEQ ID NO: 266 and SEQ ID NO: 267 and SEQ ID NO: 264 respectively) were immobilised in sodium acetate pH5 buffer to AR2G sensors using amine coupling. All assays were conducted in PBS with a plate temperature of 25° C. Ka (M^−1s^−1), Kd (s^−1) and KD (nM) values were determined using Octet Data Analysis High Throughput software (ForteBio) for Biolayer Interferometry.
(§2) Binding kinetics were determined using the Biolayer Interferometry (BLI) Octet K2 or R4 system (Sartorius). Human ALPP, ALPPL2 and ALPL all fused with a disulphide stabilised leucine zipper (SEQ ID NO: 265, SEQ ID NO: 266, and SEQ ID NO: 267) and ALPI His (SEQ ID NO: 264) were used in BLI experiments. For KD apparent measurements, the ALPP proteins were immobilised in sodium acetate pH5 buffer to AR2G sensors using amine coupling. To measure 1:1 interactions, AHC biosensors were used to immobilise Fc-fused proteins. All assays were conducted in HBS-EP with a plate temperature of 25° C. Ka (M^−1s^−1), Kd (s^−1) and KD (nM) values were determined using Octet Data Analysis High Throughput software (Sartorius) for Biolayer Interferometry.
as §2, with “NO:264)” for “NO: 264)”

Human ALPPL2 = Human ALPPL2 (Homo sapiens, UniProt P10696); experiment: BLI binding kinetics, human ALPPL2 immobilised on AR2G sensors (KD / KD apparent); details: VHH-hFc, KD apparent format
Human ALPPL2, sequence (P10696 with tags, fused parts or gaps): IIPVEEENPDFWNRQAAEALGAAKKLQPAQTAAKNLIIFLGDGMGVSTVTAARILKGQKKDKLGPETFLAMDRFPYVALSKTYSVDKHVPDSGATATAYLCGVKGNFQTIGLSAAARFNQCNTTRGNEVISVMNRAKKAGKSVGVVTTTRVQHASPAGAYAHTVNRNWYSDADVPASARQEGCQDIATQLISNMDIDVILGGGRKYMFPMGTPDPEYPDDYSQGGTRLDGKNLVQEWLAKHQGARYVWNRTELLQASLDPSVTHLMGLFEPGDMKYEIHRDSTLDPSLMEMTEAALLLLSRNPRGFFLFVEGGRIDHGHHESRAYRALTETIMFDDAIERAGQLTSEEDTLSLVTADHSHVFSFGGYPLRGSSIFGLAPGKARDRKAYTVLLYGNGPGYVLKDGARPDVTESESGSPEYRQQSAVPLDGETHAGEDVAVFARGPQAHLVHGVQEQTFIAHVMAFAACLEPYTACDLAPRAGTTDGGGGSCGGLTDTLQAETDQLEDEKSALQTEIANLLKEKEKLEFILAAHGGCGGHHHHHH
Experimental: as §1, §2
as §2, with “NO:264)” for “NO: 264)”

hALPI = molecular target: T1, hALPI (Homo sapiens, UniProt P09923); experiment: BLI binding to ALPI His; details: VHH-hFc
T1 sequence (P09923 with tags, fused parts or gaps): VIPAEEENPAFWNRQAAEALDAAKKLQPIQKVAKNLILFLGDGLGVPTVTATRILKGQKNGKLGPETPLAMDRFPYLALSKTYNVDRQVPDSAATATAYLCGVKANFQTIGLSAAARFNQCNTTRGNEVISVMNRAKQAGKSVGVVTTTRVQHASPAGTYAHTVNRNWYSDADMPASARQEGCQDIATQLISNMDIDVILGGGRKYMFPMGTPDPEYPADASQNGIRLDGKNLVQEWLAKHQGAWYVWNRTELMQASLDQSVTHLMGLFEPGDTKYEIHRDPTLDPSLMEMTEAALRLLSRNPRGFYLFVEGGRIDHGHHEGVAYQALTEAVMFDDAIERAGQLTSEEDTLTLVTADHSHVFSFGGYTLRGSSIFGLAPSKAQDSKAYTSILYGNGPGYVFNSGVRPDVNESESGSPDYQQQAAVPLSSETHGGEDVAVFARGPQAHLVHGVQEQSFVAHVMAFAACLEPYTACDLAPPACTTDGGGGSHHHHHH
Experimental: as §1, §2
as §2, with “NO:264)” for “NO: 264)”

hALPL = hALPL (Homo sapiens, UniProt P05186); experiment: BLI binding to human ALPL; details: VHH-hFc
hALPL, sequence (P05186 with tags, fused parts or gaps): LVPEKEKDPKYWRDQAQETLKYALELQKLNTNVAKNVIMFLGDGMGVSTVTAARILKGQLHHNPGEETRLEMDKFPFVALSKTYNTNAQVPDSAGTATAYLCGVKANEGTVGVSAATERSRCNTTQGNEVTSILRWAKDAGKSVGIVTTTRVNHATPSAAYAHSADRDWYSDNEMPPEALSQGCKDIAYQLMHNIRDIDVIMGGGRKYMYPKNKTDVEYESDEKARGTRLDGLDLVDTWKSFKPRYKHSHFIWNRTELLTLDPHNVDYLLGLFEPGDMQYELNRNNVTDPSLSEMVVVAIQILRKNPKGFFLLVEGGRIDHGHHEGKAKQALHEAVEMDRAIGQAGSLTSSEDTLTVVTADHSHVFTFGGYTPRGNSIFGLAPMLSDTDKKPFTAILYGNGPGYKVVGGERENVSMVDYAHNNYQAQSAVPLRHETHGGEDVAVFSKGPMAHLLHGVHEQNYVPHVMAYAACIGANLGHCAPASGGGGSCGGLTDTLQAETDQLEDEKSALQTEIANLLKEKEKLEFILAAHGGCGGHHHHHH
Experimental: as §1, §2
as §2, with “NO:264)” for “NO: 264)”

mouse ALPPL2 = molecular target: T2, mouse ALPPL2 (Mus musculus, UniProt P24823); experiment: BLI cross-species reactivity, mouse ALPPL2; assay type: binding; details: VHH-hFc, KD apparent format
T2 construct: made in house
T2 sequence (P24823 with tags, fused parts or gaps): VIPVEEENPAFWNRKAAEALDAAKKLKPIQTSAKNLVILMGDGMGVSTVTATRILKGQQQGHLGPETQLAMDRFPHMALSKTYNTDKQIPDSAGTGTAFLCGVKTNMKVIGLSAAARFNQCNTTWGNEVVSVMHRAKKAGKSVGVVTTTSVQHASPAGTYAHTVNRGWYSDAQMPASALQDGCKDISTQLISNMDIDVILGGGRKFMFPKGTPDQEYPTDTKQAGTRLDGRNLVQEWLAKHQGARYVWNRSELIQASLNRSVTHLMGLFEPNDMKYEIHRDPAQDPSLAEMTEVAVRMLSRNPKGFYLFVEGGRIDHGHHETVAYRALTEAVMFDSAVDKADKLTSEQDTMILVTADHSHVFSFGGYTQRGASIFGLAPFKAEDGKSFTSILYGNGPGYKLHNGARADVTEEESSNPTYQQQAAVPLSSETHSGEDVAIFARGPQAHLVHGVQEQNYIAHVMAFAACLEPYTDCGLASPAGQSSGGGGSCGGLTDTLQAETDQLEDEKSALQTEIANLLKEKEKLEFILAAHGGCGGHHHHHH
Experimental: as §2
(§3) To assess cross-species reactivity of the ALPP/ALPPL2 targeting VHH-hFc fusions, BLI was conducted using mouse ALPPL2 (NCBI #NP_031459), rhesus monkey ALPP (NCBI #XP_028687061) and cynomolgus monkey ALPP (NCBI #XP_045223825). Each of these were expressed as cysteine-stabilised leucine zipper fusions (SEQ ID NO: 271, SEQ ID NO: 272 and SEQ ID NO: 273). BLI was conducted as described above.

rhesus monkey ALPP = experiment: BLI cross-species reactivity, rhesus monkey ALPP; assay type: binding; details: VHH-hFc, KD apparent format
Experimental: as §2, §3

[1] = Conjugate characterisation (DAR by SDS-PAGE, HIC, LC-MS); assay type: physicochemical; details: VHH-hFc conjugated to MC-vc-PAB-MMAE
Experimental: Using a partial reduction, refolding and labelling method adapted from the literature [Junutula et al, 2008 Nat Biotech, Jeffrey et al, 2013 Bioconj Chem], these proteins were site specific labelled with the maleimide MMAE derivatives. Briefly, 1-6 mg/ml VHH hFc solutions were prepared in PBS pH 7.4 with 1 mM EDTA, 20-40 molar equivalents TCEP was added and incubated at 4° C. for 16 hours. 30-50 molar equivalents DHAA is then added, pH adjusted to 6.5 and incubated at room temperature for 1 hour. Refolded VHH Fc was extensively dialysed or buffer exchanged into PBS and quantified by UV before reacting with 4-8 molar equivalents maleimide MMAE solution, room temperature for 2 hours. Conjugates were purified by SEC and analysed by reducing and non-reducing SDS-PAGE and LC-MS. Table 15 summaries the conjugates prepared.
A similar partial reduction, refolding and labelling method was used for PNU conjugation as above with some modifications. Briefly, 1-6 mg/ml VHH hFc solutions were prepared in PBS+100 mM L-Arg pH 7.4 with 1 mM EDTA. 20 molar equivalents TCEP added and incubated at 4° C. for 16 hours. […] Refolded VHH Fc was buffer exchanged into PBS using NAP25 columns and quantified by UV. […] Conjugates were purified using activated carbon and NAP-25 desalting columns before being analysed by reducing and non-reducing SDS-PAGE, analytical HIC and LC-MS. […]

[2] = test system: Caov-3 ovarian cancer xenograft model; experiment: In vivo efficacy, Caov-3 ovarian cancer CDX, Q4D×4; parameters: species or system mouse
Experimental: Efficacy studies in the ALPP/ALPPL2+ Caov-3 ovarian cancer xenograft model were performed at Crown Bioscience (Beijing).
For the Caov-3 studies, female NCG mice were inoculated with Caov-3 ovarian adenocarcinoma cells (Peking Union Medical College, Crown ID CL-00780). Each mouse was inoculated at the mammary fat pad with Caov-3 tumor cells (1×10^7) in 0.2 mL of a 1:1 PBS/Matrigel suspension.
Mice (n=3/group) were monitored until the tumour volume reached the recruitment criteria of around 200 mm^3 in a sufficient number of animals. Mice were randomised to treatment groups such that the mean tumour volume for each group was −200 mm^3 and there was no statistical difference between tumour volumes across the groups. The day of randomisation was designated as Day 0 and mice were treated with vehicle or with the biparatopic protein-drug conjugates or with ADC h12F3-MMAE (DAR4) (see Table 35 below) on Day 1. […]
Tumour volume was evaluated by measuring perpendicular tumour diameters, with a calliper, twice a week during the experimental period. Absolute tumour volume (ATV) was calculated using the formula TV (mm^3)=[length (mm)×width (mm)×width (mm)]×0.5, where the length (L) is the longest tumour dimension, and the width (W) is the longest tumour dimension perpendicular to L. All animals were weighed at the same time as tumour size measurement and also on dosing days. […]

UniProt P05187, sequence (P05187 with tags, fused parts or gaps): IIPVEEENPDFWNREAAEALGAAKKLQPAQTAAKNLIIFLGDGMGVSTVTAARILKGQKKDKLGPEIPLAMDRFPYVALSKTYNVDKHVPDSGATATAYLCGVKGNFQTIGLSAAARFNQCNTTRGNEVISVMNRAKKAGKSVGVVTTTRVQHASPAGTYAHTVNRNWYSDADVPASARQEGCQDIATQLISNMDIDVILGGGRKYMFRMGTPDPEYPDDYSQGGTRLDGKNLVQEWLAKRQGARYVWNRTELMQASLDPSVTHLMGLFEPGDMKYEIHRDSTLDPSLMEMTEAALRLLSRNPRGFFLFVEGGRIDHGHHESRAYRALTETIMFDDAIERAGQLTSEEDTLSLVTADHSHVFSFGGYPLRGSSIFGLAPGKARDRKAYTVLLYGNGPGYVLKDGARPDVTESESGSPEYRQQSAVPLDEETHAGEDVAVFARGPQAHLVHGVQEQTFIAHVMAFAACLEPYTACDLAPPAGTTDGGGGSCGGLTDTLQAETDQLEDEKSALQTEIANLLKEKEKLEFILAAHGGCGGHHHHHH

B1: A05-hFc (S239C) (protein)
chain: QVQLVESGGGLVQAGASLTLSCAASGFTFNTRSIVWFRQAPGKEREAVSCISKVAGSTYYGDSVQGRFSSSTDNAKNTVSLQMNSLKPEDTAVYTCAASFAPNCYGWSVAANMEYWGEGTMVTVSSGGGGSGGGGSGGGGS[human IgG1 Fc with changes not spelt out]
ALPP
  hALPP Ka: 304000 M⁻¹ s⁻¹
  hALPP Kd: <1e-07 s⁻¹
Human ALPPL2
  hALPPL2 Ka: 526000 M⁻¹ s⁻¹
  hALPPL2 Kd: <1e-07 s⁻¹
hALPI
  hALPI: No binding
hALPL
  hALPL: No binding
Mouse ALPPL2
  mALPPL2 Ka: 462000 M⁻¹ s⁻¹
  mALPPL2 Kd: 0.00104 s⁻¹
Rhesus monkey ALPP
  rmALPP Ka: 562000 M⁻¹ s⁻¹
  rmALPP Kd: <1e-07 s⁻¹
[1]
  DAR (by MS): 1.87

B2: PDC5: DAR2 biparatopic VHH-hFc-MMAE protein-drug conjugate of Example 12 (Tables 33-35) (conjugate)
chain 1: QVQLVESGGGLVQPGGSLRLSCAASGSIFSVNTMGWYRQAPGKQRDLVAVATSGGTIHYADSVKGRFTISRDNAKNTVYLQMNSLKPEDTAVYYCNLVVPYGMIAGDHDYWGQGTKVTVSSGGGGSGGGGSGGGGS[human IgG1 Fc with C220S S239C T366Y (EU numbers) not spelt out]
chain 2: QVQLVESGGGLVQAGGSLRLSCAASGRAFGDYNIGWFRQAPGKEREFVARRTWDGSSTRYDDSVKGRFTVSIDNAKNTAYLQMNSLKTEDTAVYYCAAGRYSRVRGWEYDYWGQGTQVTVSSGGGGSGGGGSGGGGS[human IgG1 Fc with C220S S239C Y407T (EU numbers) not spelt out]
[2]
  anti-tumour efficacy on a mol of MMAE payload/kg basis versus ADC h12F3-MMAE (PDC6): stronger anti-tumour response
